Test results reported in the RNAGym collection of RNA variant scans (doi:10.7554/elife.90254).
Read counts are not given, so values of variants with three or more changes are uncertain.

B1: LINE1-full (parent)
chain: UACGUAGGUGGUUUUCCCCUGAUAGUGCUAAGGGGGCCUGGAAGUUUGGACUGGGCAGAGCUCAACACAGCGUGGCAAAGUGGCUGUGGCUAGACUGCCUCUCUGGAUUCCUCGUCACUCAGCAGGGCAUCUCUGAGAGAAAUGCC

Variants of: B1
Test: self-cleavage, relative activity (ratio to wild type); higher = more cleavage; in vitro, sequencing; the parent is a self-cleaving ribozyme

Row | Variant | self-cleavage
1 | UACGUAGGUGGUUUUCCCCCGGUAGUGCUAACGGGGCCUGGAAGUUUGGACUGGGCGGAGCUCAACACAGCGUGGCAAAGUGGCUGUGGCUAGACUGCCUCUCUGGAUUCCUCGUCACUCAGCAGGGCAUCUCUGAGAGAAAUGCC | 2.04
2 | UACGUAGGUGGUUUUCCCCUGACAGUGCUAAGGGGGCGUGGAAGUUUGGACAGGGCAGAGCUCAACACAGCGUGGCAAAGUGGCUGUGGCUAGACUGCCUCUCUGGAUUCCUCGUCACUCAGCAGGGCCUCUCUGAGAGAGAUGCC | 1.73
3 | UACGUAGGUGGUUUUCCCCUGAUAGUGCUAAGGGGGCCUGGAAGUUUGGACUGGGCAGAGCUCAACACAGCGUGGCAAAGUGGCUGUGGCUAGACAGCCUCUCUGUAUUCCUCGUCACUCAGCAGGGCAUCUCUGAGAGGGAUGCC | 0.02
4 | UACGUAGGUGGUUUUCCCCUGAUAGUGCUAAGCGGGCCUGGAAGUUUGGACUGGGCAGAGCUCAACACAGCGUGGCAAAGUGGCUGUGGCUAGACUGCCUCUCUGGAUUCCUCGUCGCUCAGCAGGCCAUCUCUGGGAGAAAUGCC | 0.48
5 | UACGUAGGUGGUUCUCCCCUGAUAGUGCUAAGGGGCCCUGGAAGUUUGGACUGGGCAGAGCUCAACACAGCGUGGCAGAGUGGCUGUGGCUAGACUGCCUCUCUGGAUUCCUCGUCACUCAGCAGGGCAUCUCUGAGAGGAAUGCC | 1.19
6 | UAGGUAGGUGGUUUUCCCCUGAUAGUGCUAAGGGGGCCUGGAAGUUUGGACUGGGCAGAGCUCAACACAGCGUGGCAAAGUGGCUGUGGCUAGACCGCCUCUCUGGAUUCCUCGUCACUCAGCAGGGCGUCUCUGAGAGAAAUGCC | 0.38
7 | UACGUAGGUGGUUUUCCUCUGAUAGUGCUAAGGGGGCCUGGAAGUUUGGACUGGGCAGAGCUCAACACAGCGUGGCAAAGUGGCUGUGGUUAGACUGCCUCUCUGGAUUCCUCGUCACUCAGCAGGGCAUCUCCGAGAGAAAUGCC | 0.05
8 | UACGUAGGUGGUUUUCCCCUGAUAGUGCUAAGGGGGCCUGGUAGUUUGGACUGGGCAGAGCUCAACACAGCGUGGCAAAGUGGCUGUGGCUAGGCUGCCUCUCUGGGUUCCUCGACACUCAGCAGGGCAUCUCUGAGAGAAAUGCC | 0.14
9 | UACGUAGGUGGUUUUCCCCUGAUAGUGCUAAGGGGGCCUGGAAGUUUGGACUGGGCAGAGCUCAACACAGCGUGGCAAAGUGGCUGUGGCAAGUCUGCCUCUCUGGAUACCUCGUCACUCAGCAGGGCAUCUCUGAGAGAAAUGCC | 0.06
10 | UACGUAGGUGGUUUUCCCCUGAUAGUGCUAUGGGGGCCUGGAAGUUUGGACUGGGCAGAGCUCAACACAGCGCGGCAAAGUGGCUGUGGCUAGACUGCCUCUCUGGAUUCCUCGUCACUCAGCAGGGCAUCUCUAAGGGAAAUGCC | 0
11 | UACGUAGGUGGUUUUCCCCUGAUAGUGCUAAGGGGGCCUGGAAGUUUGGACUGGGCAGAGUUCGACACAGCGUGGCAAAGUGGCUGUGGCUAGACUGCCUCUCUGGAUUCCUCGUCACUCUGCAGGGCAUCUCUGAGAGAAAUGCC | 0.06
12 | UACGUAGGUGGUUUUCCCCUGAUAGUGCUAAGGGGGCCCGGAAGUUUGGACUGGGCAGAGCUCAACACAGCAUGGCAAAGUGGCUGUGGCUAGACUGCCUCUCUGGAUUCCUCGUCACUCAGCAGGGCAUCUCUGAGGGAAAUGCC | 0.93
13 | CACGUAGGUGGUUUUCCCCAGAUAGUGCUAAGGGGGCCCGGAAGUUUGGACUGGGCAGAGAUCAACACAGCGUGGCAAAGUGGCUGUGGCUAGACUGCCUCUCUGGAUUCCUCGUCACUCAGCAGGGCAUCUCUGAGAGAAAUGCC | 0.1
14 | UACGUAGGUGAUUCUCCCCUGAUAGUGCUAAGGGGGCCUGGGAGUUUGGACUGGGCAGGGCUCAACACAGCGUGGCAAAGUGGCUGUGGCUAGACUGCCUCUCUGGAUUCCUCGUCACUCAGCAGGGCACCUCUGAGAGAAAUGCC | 0.54
15 | UACGUAGGUGGUUUUCCCCUGAUAGUGCUAAGGGGGCCUGGAAGUGUGGGCUGGGCAGAGCUCAACACAGCGUGGCGAAGUGGCUGUGGCUAGACUGCCUCUCUGGAUUCCUCGUCACUCAGCAGGGCAUCUCUGAGAGGAAUACC | 1.84
16 | UACGUAGGUGGUUAUCCCCUGAUAGUGCUAAGGGGGCCUGGAAGUUUGGACUGGGCUGAGCUCAACACAGCGUGGCAAAGUGGCUGUGGCUAGACCGCCUCUCUGGAUUCCUCGUCACUCAGCAGGGCAUCUCUGAGAGAAAUGCC | 0.07
17 | UACGUAGGUGGUUUUCCCCUGAUAGUGCUAAGGGGGCCUGGAAGUUUGGACUGGGCAGAGCUCAACACAGCGUGGCAAAGUGGCUGUGGCUAGAUUGCCUCUCUGGAAUCCUCGUCACUCUGCAGGGCAUCUCUGUGAGAAAUGCC | 0.22
18 | UUCGUAGGUGGUUUUCCCCUGAUAGUGCUAAGGGGGCCUGGAAGUUUGGACUGGGCAGAGCUCAACACAGCGUGGCAAAGUGGCUGUGGCUAGACUGCCUCUCUAGGUUCCUCGUCACUCGGCAGGGCAUCUCUGAGAGAAAUGCC | 1.12
19 | UACGUAGGUGGUCUUCUCCUGAUAGUGCUAAGGGGGCCUGGAAGUUUGGACUGGGCAGAGCUCAACACAGCGUGGCAAAGUGGCUGUGGCUAAACUGCCUCUCUGGAUUCCUCGUCACUCAGCAGGGCAUCUCUGAGAGGAAUGCC | 0.08
20 | UACGUAGGUGGUUUUCCCCUGAUAGUGCUAAGGGGGCCUGGAAGUUUGGACUGGGCAGAGCUCAUCACAGCGUGGCAGAGUGGCUGUGGCUAGACUGCCUCUCUGGAUACCUCGCCACUCAGCAGGGCAUCUCUGAGAGAAAUGCC | 0.08

Row | Variant | self-cleavage
21 | UACGUAGGUAGUUUUCCCCUGAUAGUGCUAAGGGGGCCUGGAAGUUUGGACUGGGCAGAGCUCAACACAGCGUGGCAAAGUGGCCGUGGCUAGACAGCCUCUCUGGAUUCCUCGUCACUCAGCAGGGCAUCUCUGAGAGAAAUGCC | 0.06
22 | UACGUGGGUGGUUUUCCCCUGAUAGUGCUGAGGGGGCCUGGAAGUUUGGACUGGGCAGAGCUCAGAACGGCGUGGCAAAGUGGCAGUGGCUGGACUGCCUCUCUGGAUUCCUCGUCACUCAGCAGGGCAUCUCUGAGAGAAAUGCC | 1.15
23 | UACGUAGGUGGUUUUCCCCUGAUAGUGCUAAGGGGGCCUGGAAGUUUGGACUGGGCAGAGCCCAACACAGCGUGGCGAAGUGGCUGUGGCUAGACUGCCUCUCUGAAUUCCUCGUCACUCAGCAGGGCAUCUCUGAGAGAAAUGCC | 0
24 | UACGUAGGUGGUUUUCCCCUGAUAGUGCUAAGGGGGCCUGGAAGUUUGGACUGGGCAGAGCACAACACUGCGUGGCAAAGUGGCUGUGGCUAGACUGCCUCUCUGGAUUCCUCGUCACGCAGCAGGGCAUCUCUGAGAGAAAUGCC | 0.05
25 | UACGUAGGUGGUUCUCCCCUGAUAGUGCUAAGGGGGCCUGGGAGUUUGGACUGGGCAGAGCUCAACACAGCGUGGCAAAGUGGCUGAGGCUAGACUGCCUCUCUGGAUUCCUCGUCCCUCAGCAGGGCAUCUCUGAGAGAAAAGCC | 0.27
26 | UACGUAGGUGGUUUUCCCCUGGUAGUGCUAAGGGGGCCUGGAAGUUUGGACUGGGCAGAGCUCAACACAGCGUGGCAAAGUGGCUGUGGCUAGACCGCCUCUCUGGAUUCCUCGUCACUCUGCAGGGCAUCUCUGAGAGGAAUGCC | 0.17
27 | UACGUAGGUGGUUUUCCCCUGAUAGCGCUAAGGGGGCCUGGAUGUUUGGACUGGGCAGAGCUCAACACAGCGUGGCAAAGUGGCUGUGGCUAGACUGCCUCUCUGGAUUCCUCGUCACUCAGCGGGGCAUCUCUGAGAGAAAUGCC | 1.51
28 | UACGUAGGUGGUUUUCCCCUGAUAGUGCUAAGGGGGCCUGGAAGUUUGGACUGGGCAGAGCUCUACACAGCGUGGCAAAGUGGCUGUGGCUAGACCGCCUCUCUGGAUUCCUCGUCACCCAGCAGGGCAUCUCUGAGAGAAAUGCC | 0.04
29 | UACGUAGGUGGUUCUCCCCUGAUAGUGCUAAGGGGGCCUGGAAGUUUGGACUAGGCAGAGCUCAACACAGCGUGGCAAAGCGGCUGUGGCUUGACUGCCUCUCUGGAUUCCUCGUCACUCAGCAGGGCACCUCUGAGAGAGACGCC | 1.48
30 | UACGUAGGUGGUUUUCCCCUGAUAGUGCUAAGGGGGCCUGGAAGUUUGGACUGGGCGGAGCUCAGCACAGCGUGGCAAAGUGGCUGUGGCUAGACUGCCUCUCUGGAUUCCUCGUCACUCAGCAGGGCACCUCUGAGAGGAAUGCC | 0.26
31 | UACGUAGGUGGUUUUCCCCUGAUAGUGCUAAGGGGGCCUGGAAGUUUGGACUGGGCAGAGCUCAACAUAGCGUGGCAAAGUGGCCGUGGCUGGACUGCCUCUCUGGAUUCCUCGUCACUCAGCAGGGCAUCUCUGAGAGAAAUGCC | 0.07
32 | UACGUAGGUGAUUUUCCCCUGAUAGUGCUAAGGGGGCCUGGAAGUUUGGACUGGGCAGAGCACAACACAGCGUGGCGAAGUGGCUGUGGCUAGACUGCCUCUCUGGAUUCCUCGUCACUCAGCAGGGCAUCUCUGAGAGAAACGCC | 0
33 | UACGUAGGUGGUUUUCCCCUGAUAGGGCUAAGGGGGCCUGGAAGCUUGGACUGGGCAGAGCUCAACACAGCGUGGCAAAGUGGCUGUGGCUAGACUGCCUCCCUGGAUUCCUCGUCACUCAGCAGGGCAUCUCUGAGAGAAAUGCC | 1.67
34 | UGCGUAGGUGGUUUUCCCCUGAUAGUGCUAAGGGGGCCUGGAAGUAUGGACUGGGCAGGGCUCAACACAGCGUGGCAAAGUGGCUGUGGCUAGACUGCCUCUCUGGAUUCCUCGUCACUCAGCAGGGCAUCUCUGAGAGGAAUGCC | 0.57
35 | UACGUAGGUGGUCUUCCCCUGAUAGUGCUAAGGGGGCCUGGAAGUUUGGACUGGGCAGAGCACAACACGGCGUGGCAAAGUGGCUGUGGCUAGACUGCCUCUCUGGAUUCCUCGUCACUCAGCAGGGCAUCUCUGAGAGAAAUGCC | 0.21
36 | UACGUAGGAGGUUUUCCCCUGAUUGAGCUAAGGGGGCCUGGAAGUUUGGACUGGGCAGAGCUCAACACAGCGUGGCAAAGUGGCUGUGGCUAGACUGCCUCUCUGGAUUCCUCGUCACUCAGCAGGGCAUCUCUGAGAGAAAUGCC | 1.05
37 | UACGUAGGUGGUUUUCCCCUGAUAGUGCUAAGGGGGCCUGGAAGUAUGGACUGGGCAGAGCUCAACACAGCGUGGCAAAGUGGCUGUGGCUAGACUGCCUCUCUGGAUUCCCCGUCACUCAGCAGGGCAUCUCUGAGGGAGAUGCC | 1.17
38 | UACGUAGGUGGUUUUCCCCUGAUAGUGCUAAGGGGGCCUGGAAGUUUGGACUGGGCAGAGCUCAACACAGCGUGGCGAAGUGGCUGUGGCUAGACUGCCUCUCUGGAUUCCACGUCACUCAGCAGGGCAUCUCUGAGAGAAACGCC | 2.86
39 | UACGUAGGUGGUUUACCCCUGAUAGUGCUAAGGGGGCCUGGAAGUUUGGGCCGGGCAGAGCUCAGCACAGUGUGGCAAAGUGGCUGUGGCUAGACUGCCUCUCUGGAUUCCUCGUCAUUCAGCAGGGCAUCUCUGAGAGAAAUGCC | 0.11
